pEC50, pIC50: −log10 of the molar value.
Columns and labels:
DENV2 = conditions: compared with HEK293 T cells; data not shown
Protocol: (§1) Cell viability was also evaluated to make sure that the titer reduction was not due to compound cytotoxicity. Cell viability was measured using the cell proliferation based MTT [3-(4,5-dimethylthiazol-2-yl)-2,5-diphenyl tetrazolium bromide] assay. Cell viability assays were carried out for both HEK293 T and HeLa cells. Each well of a 96-well plate was seeded with 2×10^4 cells in 100 μl DMEM. After overnight incubation, media were removed and replaced with 100 μl of fresh media containing either DMSO or various concentrations (0-1000 μM) of IU1 in DMSO. Cell viability was determined after 48 h at 37° C. using a MTT cell-proliferation kit from ATCC, following the manufacturer's protocol. […] This is the first observation that enhanced protein degradation inhibits viral replication. The results are unexpected, because inhibition of the UPS reduces the viral yield.

[1] = test system: DENV2 (New Guinea C strain); assay: DENV2 replication in HEK293T cells preincubated with IU1, titer by plaque assay on Vero cells
Protocol: To determine the effect of USP14 inhibition on viral replication, 2×10^5 HEK293T cells that were preincubated with various concentrations of IU1 (ENAMINE Ltd., Kiev, Ukraine) were infected for 4 h, with DENV2 (New Guinea C strain) at 0.1 moi. After 70 h at 37° C., supernatant was collected and the viral titer was determined by plaque assay on Vero cells. The viral yield was reduced by 20 fold in the presence of 75 μM IU1, with a half maximal effective concentration (EC50) of 40 μM (FIG. 1A).

HEK293 T cells = assay: cells; conditions: Homo sapiens, HEK-293T, 48 h, read-out: half maximal inhibitory concentration (IC50), cell viability
Protocol: as §1

HeLa cells = assay: cells; conditions: Homo sapiens, 48 h, read-out: half maximal inhibitory concentration (IC50), cell viability
Protocol: as §1

SMILES: Cc1cc(C(=O)CN2CCCC2)c(C)n1-c1ccc(F)cc1 [IU1, 1-(1-(4-fluorophenyl)-2,5-dimethyl-1H-pyrrol-3-yl)-2-(pyrrolidin-1-yl)ethanone]
- inhibition of DENV2 replication in HeLa cells (DENV2): a similar result was obtained in HeLa cells
- viral yield reduction ([1]; 75 μM IU1, HEK293T cells preincubated, 0.1 moi, 70 h): 20 fold
- pEC50 ([1]; Dengue virus, HEK-293T, HEK293T cells preincubated with IU1, DENV2 titer, read-out: half maximal effective concentration (EC50)): 4.40
- pIC50 (HEK293 T cells): 3.52
- pIC50 (HeLa cells): 3.59

Source: patent US9849135B2, “USP14 inhibitors for treating or preventing viral infections” (priority 2013, dated 2017)
